In PubChem BioAssay AID1346378 (National Center for Advancing Translational Sciences (NCATS), 2018):
Screen size: about 420,000 compounds; about 540 (0.13%) were called active. Inconclusive means that the source gave no clear call. Such entries were picked first, then a sample of the others. Cut-off read from the data, not from the text of the source: active = activity change below about -50%; inconclusive = mostly about -30% to -49%; inactive = weaker than that.

The molecules below were run against Phosphatidylinositol 4-kinase type 2-alpha (Homo sapiens) (UniProt Q9BTU6) (assay: qHTS for small molecular inhibitors of PI4K2A). Details: purified PI4K2A, ADP-Glo luminescence, 1 h; at 76.9 µM, hits give low values.
Procedure, shortened: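 Compounds are screened against recombinant PI4K2A using PI as substrate and ATP, the latter dispensed at 300 microM. Reactions run one hour at ambient temperature before ADP-Glo detection; full inhibition defined by wells lacking enzyme.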
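Note: -100% = wells without enzyme as full effect.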

UniProt Q9BTU6, sequence (Q9BTU6 whole entry, looked up): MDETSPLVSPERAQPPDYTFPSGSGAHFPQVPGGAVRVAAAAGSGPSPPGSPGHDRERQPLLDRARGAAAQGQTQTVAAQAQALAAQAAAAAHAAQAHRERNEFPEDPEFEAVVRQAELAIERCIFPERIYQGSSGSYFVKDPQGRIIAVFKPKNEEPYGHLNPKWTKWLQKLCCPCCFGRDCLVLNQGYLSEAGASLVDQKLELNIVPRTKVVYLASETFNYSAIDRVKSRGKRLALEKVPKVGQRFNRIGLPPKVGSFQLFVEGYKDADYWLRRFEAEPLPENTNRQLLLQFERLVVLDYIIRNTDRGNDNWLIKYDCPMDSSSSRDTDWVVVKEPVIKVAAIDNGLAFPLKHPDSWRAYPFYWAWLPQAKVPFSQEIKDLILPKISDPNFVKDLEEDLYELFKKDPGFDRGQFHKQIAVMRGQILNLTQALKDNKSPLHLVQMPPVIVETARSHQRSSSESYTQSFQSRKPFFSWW

SMILES | activity change, negative = inhibition
CC(C)NS(=O)(=O)c1ccc(OCC(=O)N2CCN(c3ccccc3F)CC2)cc1 | inconclusive: -35.1%
Cc1cc(C)cc(NC2=C(N)C(=O)c3ccccc3C2=O)c1 | active: -50.3%
COc1ccc(Nc2nc(-c3c(C)nc4ncccn34)cs2)cc1 | inactive: 2.11%
CC[n+]1c(/C=C(\C)Nc2ccccc2)sc2ccccc21 | inactive: -5.12%
CC1(C)N([O-])c2cc([N+](=O)[O-])ccc2[N+]1=O | inconclusive: -41.3%
Cc1cccc(NC(=O)c2ccc(OC3CSC3)cc2)c1 | active: -50.4%
Cc1cc(C)c(Nc2cc(S(=O)(=O)O)c(N)c3c2C(=O)c2ccccc2C3=O)c(C)c1 | inconclusive: -47.6%
O=C(c1ccco1)[C@@H]1[C@@H]2C(=O)N(c3ccccc3)C(=O)[C@@H]2C2c3ccccc3C=CN21 (stereo partly specified) | inconclusive: -31.3%
NC(=S)N=Nc1c(O)cc(O)c2[nH]c(=O)ccc12 | inconclusive: -48.6%
Cc1ccc2nc(C(C)(C)C)c(Cc3ccsc3)n2c1 | inconclusive: -42.6%
Oc1ccc(N=Cc2c(O)ccc3ccccc23)cc1 | inconclusive: -47.1%
Cc1ccnc(NC(=O)c2ccc3c(c2)OCO3)c1 | inconclusive: -37.2%
O=C1C(=Cc2ccccc2Cl)CCc2ccccc21 | active: -78.4%
Cc1nc(-c2ccc(C(=O)N3CCCC3)cc2)cs1 | active: -56.4%
O=C(/C=C/c1ccco1)Nc1nc(-c2ccccn2)cs1 | inconclusive: -36.3%
COC(=O)c1cccc(NC(=O)c2cccc(OC)c2)c1 | inconclusive: -32.3%
CCOc1ccc(-c2ccc(SC)nn2)cc1 | active: -85%
CCCn1cnc2c(sc3nc4c(cc32)CSC(C)(C)C4)c1=O | inactive: 3.75%
CC(C)S(=O)(=O)c1csc(C(=O)Nc2ccc(F)cc2)c1N | inconclusive: -34%
c1ccc(-c2n[nH]c(-c3ccccn3)n2)nc1 | inconclusive: -30.7%
O=C1NC(=Nc2ccc(O)cc2)S/C1=C\C=C\c1ccco1 | inconclusive: -40.1%
CCCC(=O)OCCNc1cc(SCc2ccco2)c2nonc2c1[N+](=O)[O-] | inconclusive: -48.1%
COC(=O)c1ccc(NC(=O)C(=O)c2cccn2C)cc1 | active: -81.7%

SMILES | activity change, negative = inhibition
Cc1ccc(C)c(S(=O)(=O)N2CCN(C(=O)/C=C/c3ccco3)CC2)c1 | inconclusive: -31.5%
COc1ccc(-c2nc(SC)n(C)c(=O)c2C#N)cc1OC | inconclusive: -43.3%
O=C(Nc1ccc(C(=O)N2CCOCC2)cc1)c1cccs1 | inconclusive: -30.5%
Cc1c2cc(O)c(=O)cc-2oc2cc(O)c(O)cc12 | inconclusive: -40.2%
CC(NC(=O)Nc1ccc(O)cc1)(C(F)(F)F)C(F)(F)F | active: -51.4%
Cc1onc(-c2ccccc2Cl)c1C(=O)NCc1ccco1 | inconclusive: -35.1%
Cc1cccc2sc(N(Cc3cccnc3)C(=O)CCOc3ccccc3)nc12 | active: -58.8%
CCOC(=O)N1CCc2c(sc(NCc3ccc(N(C)C)cc3)c2C(=O)Nc2ccc(OC)cc2)C1 | inconclusive: -35.9%
O=c1c(C(c2ccc(O)cc2)c2c(O)nc3n(c2=O)CCS3)c(O)nc2n1CCS2 | inconclusive: -39.7%
c1coc(C2=Nc3cccc4cccc(c34)N2)c1 | inconclusive: -45.1%
Cn1c(N)c(C(=O)COC(=O)c2cc(-c3ccco3)nc3ccccc23)c(=O)n(C)c1=O | inconclusive: -45.4%
CC(C)(C)OC(=O)N1CCC(c2cc(=O)n3[nH]cc(C(=O)Nc4ccc(F)c(Cl)c4)c3n2)CC1 | inactive: 1.66%
CN(C)c1ccc(C=c2c3ccccc3n3c2cc(-c2ccccc2)[n+]3C)cc1 | inconclusive: -37.9%
Cc1cc2nc(-c3ccc[nH]c3=O)[nH]c2cc1C | active: -66.2%
O=C1C=C(O)c2[nH]c(=O)ccc2C1=O | inconclusive: -46.1%
CN(C)C(CNC(=O)c1cc(-c2ccco2)nc2ccccc12)c1ccccc1 (stereo unspecified) | inconclusive: -32.5%
NNc1nc2c(Cl)cccc2s1 | inconclusive: -30.9%
Cc1ccccc1C(=O)Nc1ccc(C(=O)N2CCCC(N(C)C)c3ccccc32)cc1 (stereo unspecified) | inactive: -1.6%
O=C(COC(=O)c1ccc([N+](=O)[O-])o1)NCc1ccccc1 | inactive: -9.28%
CCOc1ccc(NC(=O)Nc2cc(C)ccc2F)cc1 | active: -64.1%
O=C(c1ccc(S(=O)(=O)Cc2cc(F)ccc2F)c([N+](=O)[O-])c1)N1CCCCC1 | inactive: 15.5%
CCOc1ccc(S(=O)(=O)N(C(=O)c2ccncc2)c2ccc3oc(C)c(C(=O)OC)c3c2)cc1 | inactive: 2.74%
O=c1oc(Nc2cccc(F)c2)nc2ccccc12 | inconclusive: -32.9%
